Several values for one entry are separate records, joined by “and”; a condition that tells them apart may be missing. Identical values can stand only once. The campaign covered roughly 220,000 compounds. About 16,000 (7.3%) were called active. Inconclusive results, whose numbers are uncertain, are shown with a selection of clear calls. Calls follow the shape of the dose curve; as a rule, active = well fitted inhibition curve with a large enough effect (not every such curve was filed as active); inconclusive = small, poorly fitted or top-dose-only effect, or another doubt; inactive = no such curve, though single readings can be large or run the other way. Potencies of inconclusive entries are doubtful fits and often do not repeat.
Target: Aldehyde dehydrogenase 1A1 (Homo sapiens) (UniProt P00352)
Sequence of UniProt P00352 (P00352 whole entry, looked up): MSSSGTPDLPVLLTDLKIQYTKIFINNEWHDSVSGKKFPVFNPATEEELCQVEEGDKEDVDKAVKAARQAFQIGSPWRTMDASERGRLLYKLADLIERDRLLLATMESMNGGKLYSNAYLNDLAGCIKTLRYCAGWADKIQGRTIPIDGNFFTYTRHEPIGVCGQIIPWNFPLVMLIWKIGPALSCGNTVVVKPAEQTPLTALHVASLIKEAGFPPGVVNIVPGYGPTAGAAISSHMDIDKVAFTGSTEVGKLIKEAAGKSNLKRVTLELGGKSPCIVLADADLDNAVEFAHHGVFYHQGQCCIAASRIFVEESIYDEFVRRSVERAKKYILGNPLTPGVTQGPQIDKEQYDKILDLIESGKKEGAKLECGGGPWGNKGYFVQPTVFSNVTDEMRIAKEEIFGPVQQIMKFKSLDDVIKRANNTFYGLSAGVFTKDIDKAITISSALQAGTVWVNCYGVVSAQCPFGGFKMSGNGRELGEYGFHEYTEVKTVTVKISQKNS
Assay: qHTS Assay for Inhibitors of Aldehyde Dehydrogenase 1 (ALDH1A1)
Conditions: Purified ALDH1A1, NADH fluorescence, propionaldehyde substrate; series mostly up to 75.3 µM
Potency is read from the fitted curve at half-maximal effect; tags tell the direction and shape of the fitted curve.

| SMILES | Potency |
| --- | --- |
| Cc1csc(SCC(=O)N2CCN(S(=O)(=O)c3ccc(Cl)cc3)CC2)n1 | inconclusive: 31.6 µM [inhibitor, single point] |
| O=C(C1CCCCC1)N1CC(=O)N2CCc3ccccc3C2C1 (stereo not given) | inconclusive: 20 µM [inhibitor, single point] and inconclusive: 14.1 µM [inhibitor, partial curve] and inconclusive: 25.1 µM [inhibitor, single point] |
| COc1ccc(NC(=O)N2CC3(CCN(C(=O)c4cc(C(F)(F)F)cc(C(F)(F)F)c4)CC3)C2)cc1 | inconclusive: 14.1 µM [inhibitor, single point] |
| O=C(c1ccco1)[C@@H]1[C@@H]2C(=O)N(c3ccc(F)cc3)C(=O)[C@@H]2[C@H]2C=Cc3ccccc3N21 | inconclusive: 39.8 µM [inhibitor, single point] |
| CCc1ccc2[nH]c(=O)c(CN(CCCN3CCOCC3)C(=O)Nc3ccc(Cl)cc3)cc2c1 | inconclusive: 6.31 µM [inhibitor, partial curve] |
| COC(=O)c1scc(C)c1N1C(=O)c2ccccc2C1=O | inactive |
| C=CCCC(=O)Nc1nc(C)c(-c2csc(Nc3cccc(OC)c3)n2)s1 | inactive |
| Cc1ccc(OCCCCn2ccnc2C)c(C)c1 | inconclusive: 31.6 µM [inhibitor, single point] |
| CCCOc1cccc(NC(=O)c2cc(C)oc2C)c1 | inactive |
| Cc1ccc(C)c(SCC(=O)NCc2ccco2)c1 | inconclusive: 39.8 µM [inhibitor, single point] |
| CC1CC(=O)N(c2ccc(NCc3ccccc3Cl)c([N+](=O)[O-])c2)C1=O (stereo not given) | inconclusive: 39.8 µM [inhibitor, single point] |
| CCCC(=O)Nc1ccc(Nc2ccccc2)cc1 | inconclusive: 39.8 µM [inhibitor, single point] |
| CCc1ccc(C(=O)NNc2ccc(F)cc2)cc1 | inconclusive: 39.8 µM [inhibitor, single point] |
| CC(/C=N/NC(=O)Cn1nccc1C)=C\c1ccc(C(C)C)cc1 | inactive |
| N/C(=N\OC(=O)CCCOc1ccccc1)c1ccccc1 | inactive |
| C=CCOC(=O)C(C#N)c1nc2ccccc2nc1N1CCN(Cc2ccccc2)CC1 (stereo not given) | inconclusive: 3.16 µM [inhibitor, full curve] |
| Cc1cccc(NC(=O)C(=O)NCC2CCCO2)c1 (stereo not given) | inactive |
| Cc1ccc(/C=N/N2CCN(Cc3cccc4ccccc34)CC2)o1 | inconclusive: 39.8 µM [inhibitor, single point] |
| O=C(C1CCCCC1)N1CCC(CO)(Cc2ccccc2Cl)CC1 | inconclusive: 39.8 µM [inhibitor, single point] |
| C#Cc1ccc([C@@H]2C=C(C(=O)N3CCOCC3)O[C@H](OCC)[C@H]2CCCO)cc1 | inactive |
| NNC(=O)c1ccc(-c2cccc([N+](=O)[O-])c2)o1 | active: 7.08 µM |
| Cc1ccc(-n2c(=O)[nH]c3c(C(N)=O)nc(-c4ccc(C)o4)nc32)cc1 | inconclusive: 44.7 µM [inhibitor, single point] |
| COc1ccc(NC(=O)CSc2nc3ccccc3c(=O)n2CCCN2CCCCC2)c(OC)c1 | active: 10 µM |

| SMILES | Potency |
| --- | --- |
| Cc1cc(CNC(=O)Cc2ccccc2)c2ccccc2n1 | inactive |
| c1ccc(-c2nnc(C(c3ccccc3)c3ccccc3)o2)cc1 | inconclusive: 17.8 µM [inhibitor, partial curve] |
| c1ccc(-c2[nH]ncc2-c2nc3ccccc3[nH]2)cc1 | inconclusive: 39.8 µM [inhibitor, single point] |
| Nc1c(C(O)(C(F)(F)F)C(F)(F)F)ccc2ccccc12 | inconclusive: 31.6 µM [inhibitor, partial curve] |
| C=CCn1c(SCc2csc(C)n2)nc2sc3c(c2c1=O)CCCCC3 | active: 22.4 µM |
| CC(=O)N1CCN(C(=O)CSc2nc3c(cnn3-c3ccccc3)c(=O)[nH]2)CC1 | active: 25.1 µM |
| O=C(NCc1ccco1)/C(=C\c1cccs1)NC(=O)c1ccco1 | inactive |
| COC(=O)c1ccc(NS(=O)(=O)c2ccc(SC)cc2)cc1 | inconclusive: 39.8 µM [inhibitor, single point] |
| CCN(CC)C1=CC(=O)OC12CCCCC2 | active: 14.1 µM |
| O=C(C1=C[C@H](c2ccc(Br)cc2)C[C@H](OCCCCO)O1)N1CCN(Cc2ccccc2)CC1 | inconclusive: 39.8 µM [inhibitor, single point] |
| Cc1ccc(NC(=O)c2ccc(NCCN)c([N+](=O)[O-])c2)cc1Cl | inconclusive: 12.6 µM [inhibitor, partial curve] |
| CCCCNS(=O)(=O)c1cccc(S(=O)(=O)N2CCCC2)c1 | active: 14.1 µM |
| CCN1CC=C2C(C#N)=C(N)C(C#N)(C#N)[C@H](c3cccc(OC)c3OC)[C@H]2C1 | inconclusive: 28.2 µM [inhibitor, partial curve] |
| O=C(CN1C(=O)c2ccccc2S1(=O)=O)N1CCN(c2ccccc2)CC1 | inconclusive: 44.7 µM [inhibitor, single point] |
| Cc1ccc(/C=C2/C(=O)ON=C2c2ccccc2)o1 | inactive |
| COC(=O)COc1ccc(-c2ccccc2)cc1C=O | inconclusive: 28.2 µM [inhibitor, single point] |
| CC(C)(C)NCCOc1ccc(Br)cc1 | inconclusive: 20 µM [inhibitor, partial curve] |
| CC1CCCN(CCCOc2ccc([N+](=O)[O-])cc2)C1 (stereo not given) | inconclusive: 44.7 µM [inhibitor, single point] |
| Cc1c(C(=O)Nc2ccc(F)cc2)c2ccccn2c1CCc1ccncc1 | inconclusive: 25.1 µM [inhibitor, partial curve] |
| O=c1c2[nH]c3cccc(Cl)c3c2ncn1CCN1CCCCC1 | inconclusive: 22.4 µM [inhibitor, partial curve] |
| CCCn1nnc(NC(=S)NC(=O)C(C)(C)C)n1 | inconclusive: 39.8 µM [inhibitor, single point] |
| C=CCc1cc(Cl)ccc1OCCOCCN(C)C | inconclusive: 11.2 µM [inhibitor, partial curve] |
